A collection of fitness landscapes (doi:10.1016/j.celrep.2020.107928)
In all, about 81,000 sequences were measured (“one-hybrid fitness for binding NBS DNA”: median about -0.1, highest 2% from about 0.36 on). Some of the results follow.

B1: Caulobacter ParB omega fusion; a variant is named by its letters at X, in order, B8GW30 (parent)
chain: MESVVVGEPGMSEGRRGLGRGLSALLGEVDAAPAQAPGEQLGGSREAPIEILQRNPDQPRRTFREEDLEDLSNSIREKGVLQPILVRPSPDTAGEYQIVAGERAWRAAQRAGLKTVPIMVRELDDLAVLEIGIIENVQRADLNVLEEALSYKVLMEKFERTQENIAQTIGKSXSHVANXMRLLXLPDEVQSYLVSGELTAXHARAIAAAADPVALAKQIIEGGLSVRETEALARKAPNLSAGKSKGGRPPRVKDTDTQALESDLSSVLGLDVSIDHRGSTGTLTITYATLEQLDDLCNRLTRGI

Variants of: B1
Assay: one-hybrid fitness for binding NBS DNA (the Noc-binding site; scaled: cognate 1, non-cognate 0); higher = stronger binding
Conditions: with NBS DNA site
Summary of the method: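 The reporter was HIS3, with the binding site 19 bp from the promoter, in E. coli USO used for bacterial one-hybrid selection of Caulobacter ParB libraries with four specificity codons randomised. Growth was on M9 lacking histidine, with 0.1 mM IPTG and 5 mM 3-AT, for 48 hours at 37°C. Illumina sequencing covered plasmids before and after selection; three replicate libraries were pooled and variants with under 10 reads dropped. A fitness score is the log change in variant-to-wild-type read ratio, rescaled to the cognate and non-cognate references.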

Row | Variant | one-hybrid fitness for binding NBS DNA
1 | GQKN | ≤ 0.2
2 | QSKT | 0.699
3 | DMSV | ≤ 0.2
4 | KLSG | ≤ 0.2
5 | VRCC | ≤ 0.2
6 | NRHC | ≤ 0.2
7 | DKTV | ≤ 0.2
8 | HTEM | ≤ 0.2
9 | NSNR | ≤ 0.2
10 | DREC | ≤ 0.2
11 | CVDG | ≤ 0.2
12 | GTAL | ≤ 0.2
13 | NSRV | ≤ 0.2
14 | IEPE | ≤ 0.2
15 | HETW | ≤ 0.2
16 | LAGL | ≤ 0.2
17 | QPRQ | ≤ 0.2
18 | WIRL | ≤ 0.2
19 | LLEL | ≤ 0.2
20 | WYKL | ≤ 0.2
21 | SYHI | ≤ 0.2
22 | HGWW | ≤ 0.2
23 | DQDC | ≤ 0.2
24 | NAIT | ≤ 0.2

Row | Variant | one-hybrid fitness for binding NBS DNA
25 | SPAP | ≤ 0.2
26 | WVMC | ≤ 0.2
27 | VEYS | ≤ 0.2
28 | NVIG | ≤ 0.2
29 | RWRQ | ≤ 0.2
30 | ASRH | ≤ 0.2
31 | IQME | ≤ 0.2
32 | TEKD | ≤ 0.2
33 | ILDL | ≤ 0.2
34 | TLSA | ≤ 0.2
35 | AKTC | ≤ 0.2
36 | TSIA | ≤ 0.2
37 | PSTP | ≤ 0.2
38 | DDER | ≤ 0.2
39 | NFTG | ≤ 0.2
40 | TQKG | ≤ 0.2
41 | GPPI | ≤ 0.2
42 | QQQW | ≤ 0.2
43 | ENNC | ≤ 0.2
44 | YTRL | ≤ 0.2
45 | FSPW | ≤ 0.2
46 | HGQS | ≤ 0.2
47 | YSHR | ≤ 0.2
48 | DLSQ | ≤ 0.2

Row | Variant | one-hybrid fitness for binding NBS DNA
49 | HPKV | ≤ 0.2
50 | ICRC | ≤ 0.2
51 | QTDA | 0.255
52 | SFVR | ≤ 0.2
53 | QDKA | ≤ 0.2
54 | WLKN | ≤ 0.2
55 | DAQG | ≤ 0.2
56 | ENSP | ≤ 0.2
57 | CCGR | ≤ 0.2
58 | WALS | ≤ 0.2
59 | QPYR | ≤ 0.2
60 | LQYL | ≤ 0.2
61 | PPPR | ≤ 0.2
62 | FVVV | ≤ 0.2
63 | VYSR | ≤ 0.2
64 | THFM | ≤ 0.2
65 | YALR | ≤ 0.2
66 | KNQG | ≤ 0.2
67 | DEAT | ≤ 0.2
68 | WHAL | ≤ 0.2
69 | KFCS | ≤ 0.2
70 | LRKC | ≤ 0.2
71 | TCVF | ≤ 0.2
72 | SLWW | ≤ 0.2

Row | Variant | one-hybrid fitness for binding NBS DNA
73 | IDNW | ≤ 0.2
74 | VKAI | ≤ 0.2
75 | MHVN | ≤ 0.2
76 | ARTA | ≤ 0.2
77 | RARH | 0.306
78 | SPPH | ≤ 0.2
79 | RTNL | ≤ 0.2
80 | TCNS | ≤ 0.2
81 | PSSL | ≤ 0.2
82 | RAWW | ≤ 0.2
83 | SSTY | ≤ 0.2
84 | IPSL | ≤ 0.2
85 | SSRW | ≤ 0.2
86 | TNPG | ≤ 0.2
87 | RAMH | ≤ 0.2
88 | YSWL | ≤ 0.2
89 | QKKY | 0.498
90 | NESA | ≤ 0.2
91 | WGHP | ≤ 0.2
92 | ANGM | ≤ 0.2
93 | GARE | ≤ 0.2
94 | NRTP | ≤ 0.2
95 | CFYS | ≤ 0.2
96 | RCSP | ≤ 0.2

Row | Variant | one-hybrid fitness for binding NBS DNA
97 | TEKR | 0.248
98 | DKGG | ≤ 0.2
99 | VPLV | ≤ 0.2
100 | QMHW | ≤ 0.2
101 | GPPL | ≤ 0.2
102 | ASLV | ≤ 0.2
103 | SHEV | ≤ 0.2
104 | SVGS | ≤ 0.2
105 | THAM | ≤ 0.2
106 | WLSD | ≤ 0.2
107 | DLGA | ≤ 0.2
108 | GTVK | ≤ 0.2
109 | NQSG | ≤ 0.2
110 | RYPW | ≤ 0.2
111 | MECV | ≤ 0.2
112 | HWPG | ≤ 0.2
113 | IIGG | ≤ 0.2
114 | NNMG | ≤ 0.2
115 | CFLY | ≤ 0.2
116 | QDLY | ≤ 0.2
117 | PHGP | ≤ 0.2
118 | QHIF | ≤ 0.2
119 | SWTT | ≤ 0.2
120 | WQKG | ≤ 0.2

Row | Variant | one-hybrid fitness for binding NBS DNA
121 | RFGI | ≤ 0.2
122 | EMND | ≤ 0.2
123 | SKLG | ≤ 0.2
124 | SDNL | ≤ 0.2
125 | PRHM | ≤ 0.2
126 | RRCA | 0.584
127 | TTFG | ≤ 0.2
128 | IIKC | ≤ 0.2
129 | LDHG | ≤ 0.2
130 | YYSY | ≤ 0.2
131 | WMWG | ≤ 0.2
132 | CCRY | ≤ 0.2
133 | PACD | ≤ 0.2
134 | YAKF | ≤ 0.2
135 | EEPR | ≤ 0.2
136 | AAWL | ≤ 0.2
137 | QMNE | ≤ 0.2
138 | KGFY | ≤ 0.2
139 | GYLV | ≤ 0.2
140 | STNC | ≤ 0.2
141 | HTGF | ≤ 0.2
142 | VFMS | ≤ 0.2
143 | LYCC | ≤ 0.2
144 | NDDS | ≤ 0.2

Row | Variant | one-hybrid fitness for binding NBS DNA
145 | TEKT | ≤ 0.2
146 | CMEW | ≤ 0.2
147 | VKTS | ≤ 0.2
148 | LDSW | ≤ 0.2
149 | AKWR | ≤ 0.2
150 | KRPH | ≤ 0.2
151 | RDRI | ≤ 0.2
152 | QKQW | ≤ 0.2
153 | ISHL | ≤ 0.2
154 | RVDS | ≤ 0.2
155 | SFYR | ≤ 0.2
156 | CVAV | ≤ 0.2
157 | YAKD | ≤ 0.2
158 | WDPS | ≤ 0.2
159 | TVKR | 0.211
160 | HKHG | ≤ 0.2
161 | NVCL | ≤ 0.2
162 | WCAR | ≤ 0.2
163 | STGK | ≤ 0.2
164 | NRML | ≤ 0.2
165 | AIIR | ≤ 0.2
166 | FMPR | ≤ 0.2
167 | QVKN | ≤ 0.2
168 | LSWV | ≤ 0.2

Row | Variant | one-hybrid fitness for binding NBS DNA
169 | QALY | ≤ 0.2
170 | LPKR | ≤ 0.2
171 | GVFG | ≤ 0.2
172 | APVC | ≤ 0.2
173 | HDMG | ≤ 0.2
174 | WPGL | ≤ 0.2
175 | LILC | ≤ 0.2
176 | GSYG | ≤ 0.2
177 | NYLT | ≤ 0.2
178 | KMNS | ≤ 0.2
179 | IYVA | ≤ 0.2
180 | LAKA | ≤ 0.2
181 | FVNR | ≤ 0.2
182 | DPSY | ≤ 0.2
183 | YCVC | ≤ 0.2
184 | MPHF | ≤ 0.2
185 | FITI | ≤ 0.2
186 | HPEI | ≤ 0.2
187 | QYVS | 0.231
188 | EDQY | ≤ 0.2
189 | VWLG | ≤ 0.2
190 | IRIE | ≤ 0.2
191 | MTDI | ≤ 0.2
192 | VVRT | ≤ 0.2

Row | Variant | one-hybrid fitness for binding NBS DNA
193 | TVFC | ≤ 0.2
194 | STYK | ≤ 0.2
195 | KGPC | ≤ 0.2
196 | MAAF | ≤ 0.2
197 | EYNG | ≤ 0.2
198 | QNFS | ≤ 0.2
199 | ETLI | ≤ 0.2
200 | HEWG | ≤ 0.2
201 | TGDY | ≤ 0.2
202 | YVST | ≤ 0.2
203 | RFAE | ≤ 0.2
204 | PVYW | ≤ 0.2
205 | RYER | 0.215
206 | SCDA | ≤ 0.2
207 | QMMR | 0.523
208 | LKPG | ≤ 0.2
209 | HELY | 0.201
210 | KQAV | ≤ 0.2
211 | TTKL | ≤ 0.2
212 | QSVI | ≤ 0.2
213 | LIPV | ≤ 0.2
214 | DNHP | ≤ 0.2
215 | TRGP | ≤ 0.2
216 | VRCK | ≤ 0.2

Row | Variant | one-hybrid fitness for binding NBS DNA
217 | FWPP | ≤ 0.2
218 | GPKM | ≤ 0.2
219 | AKSS | ≤ 0.2
220 | GETG | ≤ 0.2
221 | YQFT | ≤ 0.2
222 | GRGI | ≤ 0.2
223 | QTLE | ≤ 0.2
224 | NHHY | ≤ 0.2
225 | ERRN | ≤ 0.2
226 | YHSG | ≤ 0.2
227 | FYFT | ≤ 0.2
228 | LKAG | ≤ 0.2
229 | DIIL | ≤ 0.2
230 | YQNH | ≤ 0.2
231 | YYKW | ≤ 0.2
232 | IEPN | ≤ 0.2
233 | VSSL | ≤ 0.2
234 | HSSW | ≤ 0.2
235 | RQYI | ≤ 0.2
236 | LMVR | ≤ 0.2
237 | DCYC | ≤ 0.2
238 | RPRL | ≤ 0.2
239 | HYAV | ≤ 0.2
240 | DMLS | ≤ 0.2

Row | Variant | one-hybrid fitness for binding NBS DNA
241 | AQQK | ≤ 0.2
242 | PEQV | ≤ 0.2
243 | NCEW | ≤ 0.2
244 | GKNA | ≤ 0.2
245 | QCYV | ≤ 0.2
246 | WISS | ≤ 0.2
247 | YRPV | ≤ 0.2
248 | YGYG | ≤ 0.2
249 | NEVW | ≤ 0.2
250 | FGHR | ≤ 0.2
251 | RLPN | ≤ 0.2
252 | KRVH | ≤ 0.2
253 | REGF | ≤ 0.2
254 | SHQL | ≤ 0.2
255 | LHKA | ≤ 0.2
256 | QKRT | 0.757
257 | WHTC | ≤ 0.2
258 | YVAS | ≤ 0.2
259 | RKLS | 0.496
260 | QGCS | ≤ 0.2
261 | LYVY | ≤ 0.2
262 | NHVT | ≤ 0.2
263 | WCLG | ≤ 0.2
264 | KVMW | ≤ 0.2

Row | Variant | one-hybrid fitness for binding NBS DNA
265 | AQFK | ≤ 0.2
266 | QLNQ | ≤ 0.2
267 | QCSD | ≤ 0.2
268 | MLKV | ≤ 0.2
269 | TAQG | ≤ 0.2
270 | YDSI | ≤ 0.2
271 | ADPD | ≤ 0.2
272 | TTNQ | ≤ 0.2
273 | CRTM | ≤ 0.2
274 | HIDR | ≤ 0.2
275 | AAST | ≤ 0.2
276 | PFAK | ≤ 0.2
277 | KWKT | ≤ 0.2
278 | MRPC | ≤ 0.2
279 | IMHR | ≤ 0.2
280 | GDLG | ≤ 0.2
281 | WPLL | ≤ 0.2
282 | EKFF | ≤ 0.2
283 | SEHY | ≤ 0.2
284 | IIAL | ≤ 0.2
285 | YWVC | ≤ 0.2
286 | QNMR | ≤ 0.2
287 | GHKV | ≤ 0.2
288 | GARV | ≤ 0.2

Row | Variant | one-hybrid fitness for binding NBS DNA
289 | NHLR | ≤ 0.2
290 | YIWV | ≤ 0.2
291 | FPYG | ≤ 0.2
292 | RCDS | ≤ 0.2
293 | LGLW | ≤ 0.2
294 | HFER | ≤ 0.2
295 | TYDM | ≤ 0.2
296 | CYVG | ≤ 0.2
297 | LRAW | ≤ 0.2
298 | GRMS | ≤ 0.2
299 | SKPK | ≤ 0.2
300 | KRSS | 0.421
301 | ASGV | ≤ 0.2
302 | SSRV | ≤ 0.2
303 | NAKG | ≤ 0.2
304 | LTNW | ≤ 0.2
305 | LTDR | ≤ 0.2
306 | LSID | ≤ 0.2
